In brackets after ≈: the same amount, converted by molar mass. Like-named read-outs stand apart in the source and are kept apart here.
Tests used:
[1] = system: Candida dubliniensis (isolate #10); conditions: clinical isolate #10; 1 hour 37° C. in 10 mM NaCl/50 mM MOPS, pH 7.2, then YPD 24 hours 30° C.
[2] = system: Candida albicans (isolate #AST97); conditions: clinical isolate AST97 (blood culture); 1 hour 37° C. in 10 mM NaCl/50 mM MOPS, pH 7.2, then YPD 24 hours 30° C.
[3] = system: Candida albicans (isolate #3); conditions: clinical isolate #3; 1 hour 37° C. in 10 mM NaCl/50 mM MOPS, pH 7.2, then YPD 24 hours 30° C.
[4] = system: Candida tropicalis (isolate #93); conditions: clinical isolate #93; 1 hour 37° C. in 10 mM NaCl/50 mM MOPS, pH 7.2, then YPD 24 hours 30° C.
[5] = system: Candida albicans (SC5314); assay: microbe, parasite or virus in culture; conditions: SC5314, pH 7.2
[6] = system: Candida dubliniensis (isolate #10); assay: microbe, parasite or virus in culture; conditions: pH 7.2
[7] = system: Candida albicans (isolate #3); assay: microbe, parasite or virus in culture; conditions: pH 7.2
[8] = system: Candida albicans (isolate #AST97); assay: microbe, parasite or virus in culture; conditions: pH 7.2
[9] = system: Candida tropicalis (isolate #93); assay: microbe, parasite or virus in culture; conditions: pH 7.2
MRSAS. aureus (STRAIN 2) = conditions: clinical MRSA strain 2; 1 hour 37° C. in 10 mM NaCl/50 mM MOPS, pH 7.2, then YPD 24 hours 37° C.
Bacillus subtilis = assay: MIC, inhibition of cell growth; format: cell-based; conditions: lab strain; 1 hour 37° C. in 10 mM NaCl/50 mM MOPS, pH 7.2, then YPD 24 hours 37° C.
MRSAS. aureus (STRAIN 1) = conditions: clinical MRSA strain 1; 1 hour 37° C. in 10 mM NaCl/50 mM MOPS, pH 7.2, then YPD 24 hours 37° C.
Candida albicans = conditions: concentration of Fluconazole, Ketoconazole or Itraconazole, alone or in combination; 1 hour 37° C. in 20 mM Tris-Cl, pH 7.2, 20 mM NaCl, then YPD 24 hours
[10] = system: Candida albicans (isolate #99); assay: microbe, parasite or virus in culture; conditions: pH 7.2

Structure (SMILES) | MIC [1] [µM] | MIC [2] [µM] | MIC [3] [µM] | MIC [4] | MIC [5] [µM] | MIC [6] [µM] | MIC [7] [µM] | MIC [8] [µM] | MIC [9] [µM] | MIC (MRSAS. aureus (STRAIN 2)) [µM] | MIC (Bacillus subtilis) [µM] | MIC (MRSAS. aureus (STRAIN 1)) [µM] | MIC (azole) (Candida albicans) [µM] | MIC [10] [µM]
C[C@@H]1[C@H](O)[C@@H](C)/C=C/C=C/C=C/C=C/C=C/C=C/C=C/[C@H](O[C@@H]2O[C@H](C)[C@@H](O)[C@H](N)[C@@H]2O)C[C@@H]2O[C@](O)(C[C@@H](O)C[C@@H](O)[C@H](O)CC[C@@H](O)C[C@@H](O)CC(=O)O[C@H]1C)C[C@H](O)[C@H]2C(=O)O [AMP-b, Amphoteracin-h] | 5.4 (≈ 4.99 µg/mL) | 4.5 (≈ 4.16 µg/mL) | 0.6 (≈ 0.554 µg/mL) | ≧6.5 uM | – | – | – | – | – | – | – | – | – | –
OC(Cn1cncn1)(Cn1cncn1)c1ccc(F)cc1F [FLU, Fluconazole] | – | – | – | – | ≥ 97.9 | ≥ 97.9 | ≥ 97.9 | ≥ 97.9 | ≥ 97.9 | – | – | – | – | –
C[C@H](NC(=O)[C@H](Cc1c[nH]cn1)NC(=O)[C@H](CO)NC(=O)[C@@H](N)CC(=O)O)C(=O)N[C@@H](CCCCN)C(=O)N[C@@H](CCCNC(=N)N)C(=O)N[C@@H](Cc1c[nH]cn1)C(=O)N[C@@H](Cc1c[nH]cn1)C(=O)NCC(=O)N[C@@H](Cc1ccc(O)cc1)C(=O)N[C@@H](CCCCN)C(=O)N[C@@H](CCCNC(=N)N)C(=O)N[C@@H](CCCCN)C(=O)N[C@@H](Cc1ccccc1)C(=O)N[C@@H](Cc1c[nH]cn1)C(=O)N[C@@H](CCC(=O)O)C(=O)N[C@@H](CCCCN)C(=O)N[C@@H](Cc1c[nH]cn1)C(=O)N[C@@H](Cc1c[nH]cn1)C(=O)N[C@@H](CO)C(=O)N[C@@H](Cc1c[nH]cn1)C(=O)N[C@@H](CCCNC(=N)N)C(=O)NCC(=O)N[C@@H](Cc1ccc(O)cc1)C(=O)O [H5] | >350 | >350 | >350 | >350 µM | – | – | – | – | – | >350 | >350 | >350 | – | –
CCC(C)n1ncn(-c2ccc(N3CCN(c4ccc(OCC5COC(Cn6cncn6)(c6ccc(Cl)cc6Cl)O5)cc4)CC3)cc2)c1=O (stereo not shown) [ITRA, Itraconazole] | – | – | – | – | 3.1 (≈ 2.19 µg/mL) | ≥ 7.09 | ≥ 7.09 | 5.4 (≈ 3.81 µg/mL) | ≥ 7.09 | – | – | – | 0.71 | –
CC(=O)N1CCN(c2ccc(OCC3COC(Cn4ccnc4)(c4ccc(Cl)cc4Cl)O3)cc2)CC1 (stereo not shown) [KETO, Ketoconazole] | – | – | – | – | 5.5 (≈ 2.92 µg/mL) | ≥ 9.41 | ≥ 9.41 | 1.2 (≈ 0.638 µg/mL) | ≥ 9.41 | – | – | – | – | 6.2 (≈ 3.29 µg/mL)

From patent US20100173833A1, “METHODS AND COMPOSITION FOR USE OF CYCLIC ANALOGUES OF HISTATIN” (priority 2007, published 2010)
